{"source": "the supplement of paper PMC3334620", "note": "Over roughly 33,000 sequences, “E-score (-0.5 to 0.5)” has its median near -0.01; the highest 2% begin near 0.26. The list shows a part of the results."}
{"target": "Ste12 (UniProt P13574)", "assay": "PBM E-score (8-mer binding enrichment) (E-score (-0.5 to 0.5)); higher = stronger / more preferred TF binding; most listed sequences are background and not binding sites", "conditions": "protein concentration: 200 nM; construct: GST-DNA-binding domain", "summary_of_the_method": "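Yeast transcription factors carrying a GST tag, as full-length proteins or DNA-binding domains, were produced by PURExpress in vitro transcription/translation. About 100-200 nM protein was applied to universal all-10-mer Agilent arrays, double-stranded by primer extension on fresh or once-stripped slides. Bound protein was detected with fluorescent anti-GST, and scans were normalised with masliner. The Universal PBM Analysis Suite gave each ungapped eight-base word, pooled with its reverse complement, an E-score, a modified Wilcoxon-Mann-Whitney statistic.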"}
{"sequence": "GAAAACTA", "PBM E-score": 0.144}
{"sequence": "ATATGGCC", "PBM E-score": -0.162}
{"sequence": "CTCGATTA", "PBM E-score": 0.0815}
{"sequence": "CGGGCGTC", "PBM E-score": 0.0731}
{"sequence": "CGATTGTA", "PBM E-score": 0.156}
{"sequence": "ATTGCCTC", "PBM E-score": 0.00753}
{"sequence": "CAAGGGTA", "PBM E-score": 0.0306}
{"sequence": "TGCACCAA", "PBM E-score": -0.111}
{"sequence": "TATGTTCA", "PBM E-score": 0.0922}
{"sequence": "AGGCTGCC", "PBM E-score": 0.0205}
{"sequence": "CATACACC", "PBM E-score": 0.0556}
{"sequence": "AACGTTGA", "PBM E-score": 0.0304}
{"sequence": "AACACACG", "PBM E-score": -0.0496}
{"sequence": "AAACGTGA", "PBM E-score": 0.312}
{"sequence": "AGCAGTTG", "PBM E-score": -0.126}
{"sequence": "GCTCCCAA", "PBM E-score": -0.0782}
{"sequence": "ACTGGTAA", "PBM E-score": 0.0525}
{"sequence": "CATTTCAG", "PBM E-score": 0.0948}
{"sequence": "GCCGCAGA", "PBM E-score": 0.0237}
{"sequence": "GCTCGCCA", "PBM E-score": -0.0532}
{"sequence": "ACATTGTA", "PBM E-score": 0.156}
{"sequence": "AAGCCAAT", "PBM E-score": -0.014}
{"sequence": "CACAGGCG", "PBM E-score": -0.161}
{"sequence": "TAACAAAA", "PBM E-score": 0.182}
{"sequence": "TCGTTGCA", "PBM E-score": -0.0015}
{"sequence": "GGCCACAC", "PBM E-score": -0.0159}
{"sequence": "GCAGATGC", "PBM E-score": -0.154}
{"sequence": "AATGCTTG", "PBM E-score": -0.117}
{"sequence": "TTGCTAAA", "PBM E-score": -0.0171}
{"sequence": "GTCCGCCA", "PBM E-score": -0.0606}
{"sequence": "ATCTAGGC", "PBM E-score": -0.135}
{"sequence": "TCACGAAA", "PBM E-score": 0.211}
{"sequence": "ACGCTTCG", "PBM E-score": -0.0299}
{"sequence": "CGCCGGCC", "PBM E-score": -0.00587}
{"sequence": "AGACTCCT", "PBM E-score": -0.0428}
{"sequence": "CACTCCAC", "PBM E-score": 0.108}
{"sequence": "AGACTCCC", "PBM E-score": -0.222}
{"sequence": "TGCCTCAA", "PBM E-score": 0.0616}
{"sequence": "AAGGCTCG", "PBM E-score": -0.214}
{"sequence": "CCCTTCGG", "PBM E-score": -0.153}
{"sequence": "ACCGCGGC", "PBM E-score": 0.16}
{"sequence": "CAACCTGC", "PBM E-score": 0.0657}
{"sequence": "ACTACCGC", "PBM E-score": -0.102}
{"sequence": "CACCTCTG", "PBM E-score": 0.0309}
{"sequence": "ACGACCCT", "PBM E-score": -0.169}
{"sequence": "AGGTGGTA", "PBM E-score": -0.0982}
{"sequence": "CTCTCCAC", "PBM E-score": -0.121}
{"sequence": "ACGTTTCT", "PBM E-score": 0.064}
{"sequence": "GCGAATGA", "PBM E-score": 0.207}
{"sequence": "AATCCAAC", "PBM E-score": 0.0243}
{"sequence": "CCTATTAC", "PBM E-score": -0.0282}
{"sequence": "CGCGATCA", "PBM E-score": 0.0613}
{"sequence": "GCAGTAGA", "PBM E-score": -0.161}
{"sequence": "AAGCAAAG", "PBM E-score": -0.0466}
{"sequence": "AGATGCCC", "PBM E-score": -0.172}
{"sequence": "CTGTGTCA", "PBM E-score": 0.0491}
{"sequence": "CGTCTTTC", "PBM E-score": -0.0954}
{"sequence": "ACTTTCTG", "PBM E-score": 0.0746}
{"sequence": "CGACGAAC", "PBM E-score": -0.134}
{"sequence": "CGCTTATA", "PBM E-score": -0.0823}
{"sequence": "GCTTTCAA", "PBM E-score": 0.0208}
{"sequence": "CGTGCCAC", "PBM E-score": -0.0815}
{"sequence": "CATCCGAG", "PBM E-score": -0.00822}
{"sequence": "GGCACACA", "PBM E-score": -0.185}
{"sequence": "CGTGTTAA", "PBM E-score": -0.0275}
{"sequence": "CGACAGAA", "PBM E-score": 0.18}
{"sequence": "ACAAAGGG", "PBM E-score": 0.0154}
{"sequence": "CGGCTACG", "PBM E-score": -0.191}
{"sequence": "GAGTCTAA", "PBM E-score": -0.033}
{"sequence": "AGAGAACG", "PBM E-score": 0.0408}
{"sequence": "ATGTTTAA", "PBM E-score": 0.0895}
{"sequence": "ATACTGTC", "PBM E-score": 0.079}
{"sequence": "CTCCTGCA", "PBM E-score": -0.12}
{"sequence": "AGGCGCGC", "PBM E-score": 0.0793}
{"sequence": "AGAAGTCA", "PBM E-score": 0.0152}
{"sequence": "AACATCGA", "PBM E-score": 0.0765}
{"sequence": "CACAGCCG", "PBM E-score": -0.0111}
{"sequence": "AGTCCTTA", "PBM E-score": -0.135}
{"sequence": "CCGTTAAA", "PBM E-score": -0.042}
{"sequence": "CTCAGAAC", "PBM E-score": 0.0826}
{"sequence": "GCCAGGGA", "PBM E-score": -0.175}
{"sequence": "ATCACAAA", "PBM E-score": 0.105}
{"sequence": "AGCGTGGA", "PBM E-score": -0.0812}
{"sequence": "CGGTTCAA", "PBM E-score": -0.074}
{"sequence": "GGGGTAAC", "PBM E-score": -0.11}
{"sequence": "GGAGCTCA", "PBM E-score": -0.155}
